Biological target: β-adrenergic subtype 1 Receptor (AR-β1) (Homo sapiens, UniProt P08588)
Sequence of UniProt P08588 (P08588 whole entry): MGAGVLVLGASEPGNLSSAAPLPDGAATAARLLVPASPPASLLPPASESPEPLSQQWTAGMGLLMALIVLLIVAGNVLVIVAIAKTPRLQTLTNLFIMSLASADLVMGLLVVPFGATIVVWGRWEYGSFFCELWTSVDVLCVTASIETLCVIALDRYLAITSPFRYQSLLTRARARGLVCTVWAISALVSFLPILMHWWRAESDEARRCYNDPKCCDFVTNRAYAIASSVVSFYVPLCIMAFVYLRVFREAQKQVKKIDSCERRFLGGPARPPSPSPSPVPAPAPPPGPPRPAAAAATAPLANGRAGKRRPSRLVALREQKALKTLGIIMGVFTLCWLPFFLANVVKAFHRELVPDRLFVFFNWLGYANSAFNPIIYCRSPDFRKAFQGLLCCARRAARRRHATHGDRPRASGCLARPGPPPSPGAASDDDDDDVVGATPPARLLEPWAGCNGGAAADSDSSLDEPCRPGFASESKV

fluorescent signal competed out (50 μM competitor, fluorescent ligand CGP12177 (FIG. 15)): approximately 30% | BODIPY TMR CGP12177 fluorescence upon addition of ICI118,551 (AR-β1 corrals (FIG. 16)): only partially
Compound: Cc1ccc(OCC(O)C(C)NC(C)C)c2c1CCC2 (centres unmarked) [ICI118,551]
